Out of some 310,000 compounds screened, about 14,000 (4.5%) showed an effect of 50% or more. Effects have a minus sign here. The list shows a part of the results. Where a SMILES comes first, the peptide text is derived from it.
These molecules were tested against human ether-à-go-go-related gene (hERG) potassium channel (human, UniProt Q12809) (assay: primary screen, population patch clamp on CHO cells stably expressing hERG).
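Further: peak tail current of the secondary pulse compared with the same well before compound.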

human ether-à-go-go-related gene (hERG) potassium channel, sequence (Q12809 whole entry, looked up): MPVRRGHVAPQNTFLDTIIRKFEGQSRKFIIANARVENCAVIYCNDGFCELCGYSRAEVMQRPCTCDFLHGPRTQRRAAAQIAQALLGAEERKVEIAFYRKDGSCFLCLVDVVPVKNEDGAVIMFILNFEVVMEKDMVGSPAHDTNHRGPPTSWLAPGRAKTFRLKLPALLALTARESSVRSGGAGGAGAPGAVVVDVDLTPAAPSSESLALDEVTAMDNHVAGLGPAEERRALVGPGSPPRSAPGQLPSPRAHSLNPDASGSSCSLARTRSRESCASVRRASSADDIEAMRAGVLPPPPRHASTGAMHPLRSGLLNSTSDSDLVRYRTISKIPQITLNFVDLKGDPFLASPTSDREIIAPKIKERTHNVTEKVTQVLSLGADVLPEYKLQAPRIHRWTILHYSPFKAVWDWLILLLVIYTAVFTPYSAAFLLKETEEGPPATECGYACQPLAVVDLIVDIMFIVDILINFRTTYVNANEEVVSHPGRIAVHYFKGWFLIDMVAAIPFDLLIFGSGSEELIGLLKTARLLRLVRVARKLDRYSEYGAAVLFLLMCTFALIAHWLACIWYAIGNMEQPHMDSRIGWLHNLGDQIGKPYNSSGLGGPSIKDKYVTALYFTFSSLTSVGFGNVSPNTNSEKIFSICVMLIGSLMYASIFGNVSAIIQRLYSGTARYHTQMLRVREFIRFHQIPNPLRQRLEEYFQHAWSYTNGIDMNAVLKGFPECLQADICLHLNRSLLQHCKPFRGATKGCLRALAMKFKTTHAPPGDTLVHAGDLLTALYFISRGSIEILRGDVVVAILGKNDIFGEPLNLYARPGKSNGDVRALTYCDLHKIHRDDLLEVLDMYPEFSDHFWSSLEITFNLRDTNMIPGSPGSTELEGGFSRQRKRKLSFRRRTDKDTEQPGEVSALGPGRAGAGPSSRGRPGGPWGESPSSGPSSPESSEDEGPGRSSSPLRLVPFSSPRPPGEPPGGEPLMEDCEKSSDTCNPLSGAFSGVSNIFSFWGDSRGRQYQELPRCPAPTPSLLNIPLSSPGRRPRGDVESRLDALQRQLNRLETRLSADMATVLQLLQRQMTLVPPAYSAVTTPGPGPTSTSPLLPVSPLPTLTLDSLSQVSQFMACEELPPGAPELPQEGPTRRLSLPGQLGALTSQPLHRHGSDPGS

Row | Compound | hERG current change (%, negative = inhibition) at 10uM
1 | O=C(NCCN1C(=O)S/C(=C\c2ccccc2F)C1=O)C1CCN(S(=O)(=O)c2cccs2)CC1 | -57.2%
2 | COc1ccc(C(=O)C2CCCN(Cc3ccc4nonc4c3)C2)c(C)c1 (centres unmarked) | -20.3%
3 | CCc1ccc(-c2nc(CCl)cs2)cc1.Cl | -2.85%
4 | Cn1ccnc1SCC(=O)NC1CCCC1 | 32%
5 | CCC(=O)Nc1cccc(-c2nnc(SCC(=O)c3ccccc3)n2C)c1 | 5.95%
6 | CC(=O)c1ccc(NC(=O)CSc2nnc(NC(=O)CN3CCOCC3)s2)cc1 | -2.24%
7 | CN1c2ccccc2C(=O)NC1c1ccc([N+](=O)[O-])s1 (centres unmarked) | -19.5%
8 | O=C(CSCc1ccccc1)Nc1ccccc1 | 8.79%
9 | COc1ccc(/C(C)=N\NC(=O)CSc2nnc(C)s2)cc1 | -3.66%
10 | O=C(NC(=S)NCCc1ccccn1)c1ccccc1 | 6.04%
11 | COc1ccc(NC(=O)CN2C(=O)C(C)Oc3ccccc32)cc1OC (centres unmarked) | 13.8%
12 | COc1cc(Cn2c(N)c(C#N)c3nc4ccccc4nc32)cc(OC)c1 | 17%
13 | CC12CCC(C(=O)N(NC(=O)c3cc(Cl)ccc3O)C1=O)C2(C)C (centres unmarked) | 17.4%
14 | COc1cc2c(cc1OC)C(C(=O)Nc1ccc3c(c1)OCCO3)C(c1cccnc1)N(C)C2=O (centres unmarked) | 3.06%
15 | CSCCC1NC(=O)N(CC(=O)Nc2c(C(C)C)cccc2C(C)C)C1=O (centres unmarked) | 8.02%
16 | CC1CCCCN1C(=O)N[C@@H](Cc1ccccc1)C(=O)O (some centres unmarked) | 0.607%
17 | COC(=O)c1c(NC(=O)CN(c2ccc(C)c(C)c2)S(C)(=O)=O)sc2c1CCCC2 | 2.62%
18 | COc1ccc(C(=O)C2CCCN(C(=O)c3noc4c3CCCC4)C2)c(C)c1 (centres unmarked) | -17.2%
19 | COc1ccc(C2C=C(c3ccc(Cl)cc3)Nc3nc(NC(C)=O)nn32)cc1 (centres unmarked) | -39.7%
20 | CCCCCCSc1cc(-c2nc3cc(C)ccn3c2NCCCC)ccc1OC.O=C(O)C(F)(F)F | -7.35%
21 | COc1ccc(NC(=O)Cn2cccc2)c(OC)c1 | -2.18%
22 | O=C(/C=C/c1cccc([N+](=O)[O-])c1)Nc1ccccc1N1CCOCC1 | -49.1%

Row | Compound | hERG current change (%, negative = inhibition) at 10uM
23 | COc1ccc(N=Cc2c(O)n(-c3ccc(OC)cc3)c(=O)c3ccccc23)cc1 | 15.2%
24 | CCOC(=O)C(CC)n1nc(C)n2c(cc3sccc32)c1=O (centres unmarked) | -17.2%
25 | CC(C)(O)C(=O)NNC(=S)NCc1ccco1 | -5.53%
26 | CCOC(=O)CC1=C(C(=O)OCC)C(c2cccnc2)C(C#N)=C(N)O1 (centres unmarked) | 5.53%
27 | Cc1cccc(N2CCN(C(=O)C3CCC(CNS(=O)(=O)c4cccs4)CC3)CC2)c1C (centres unmarked) | 1.93%
28 | O=C(c1ccco1)N1CCN(Cc2cc(=O)c(OCc3ccccc3Cl)co2)CC1 | -56.2%
29 | C/C(=N\NC(=S)Nc1ccc(C)c(C)c1)c1ccc(N2CCOCC2)cc1 | 23.7%
30 | CCNC(=O)/C(C#N)=C/c1c(N2CCN(Cc3ccc4c(c3)OCO4)CC2)nc2c(C)cccn2c1=O | -37.6%
31 | CC(C)CN(C)C(=O)CCc1nnc(Cc2ccc(-c3ccccc3)cc2)o1 | -17.3%
32 | COC(=O)[C@]1(C)N[C@H](c2ccc(-c3ccc(Cl)c(Cl)c3)c(OC)c2)[C@@H]2C(=O)N(C)C(=O)[C@@H]21.O=C(O)C(F)(F)F | -7.69%
33 | CCCCCN(C(=O)CCC(=O)OCCOc1ccccc1)c1c(N)n(CCCC)c(=O)[nH]c1=O | -19%
34 | COc1ccc2sc(NC(=O)c3ccco3)nc2c1 | -0.256%
35 | Cc1ccc(N(CC(=O)NCc2ccco2)C(=O)CCC(=O)Nc2nccs2)cc1C | -7.5%
36 | Cc1ccc(C)c(C(=O)COC(=O)c2ccc(Br)o2)c1 | 4.92%
37 | Cc1csc2c(NCCCN3CCOCC3)ncnc12 | 2.69%
38 | Cc1ccc(N=C2CCCN2Cc2ccccc2)c(C#N)c1 | -16.1%
39 | O=C(C1CCN(CC2CC=CCC2)CC1)N(CCc1ccccc1)Cc1ccccc1 (centres unmarked) | -72%
40 | CC(C)C[C@H](NC(=O)[C@@H]1CCCN1C(=O)[C@@H](N)Cc1ccc(O)cc1)C(=O)NCC(N)=O (H-YPLG-NH2) | 15.9%
41 | CCNC(=O)c1ccccc1SCc1ccccc1 | 1.38%
42 | CC(c1ccccc1)N1C(=O)c2ccccc2C1(O)Cc1ccccc1 (centres unmarked) | -4.7%
43 | Cc1ccc(OCCOC(=O)C2CCN(S(=O)(=O)c3ccc(C)c(C)c3)CC2)cc1 | 2.76%
44 | CCOC(=O)C1CCN(C(=O)C2(NC(=O)NC3CCCCC3)CCCCC2)CC1 | 22.8%

— PMC4336329 (PLoS ONE, 2015)
